# PubChem BioAssay AID504339 (National Center for Advancing Translational Sciences (NCATS), 2011)
# Screen size: about 390,000 compounds; about 17,000 (4.4%) were called active. The shares of active, inactive and inconclusive entries below differ from those in the screen. The call rests on the fitted dose curve; in most records, active means well fitted inhibition curve with a large enough effect; inconclusive means small, poorly fitted or top-dose-only effect; inactive means no such curve, though single readings can be large or run the other way. Potencies of inconclusive entries are doubtful fits and often do not repeat.
# Biological target: Lysine-specific demethylase 4A (Homo sapiens) (UniProt O75164)
# UniProt O75164, sequence (O75164 whole entry, looked up, the tested form may be a part): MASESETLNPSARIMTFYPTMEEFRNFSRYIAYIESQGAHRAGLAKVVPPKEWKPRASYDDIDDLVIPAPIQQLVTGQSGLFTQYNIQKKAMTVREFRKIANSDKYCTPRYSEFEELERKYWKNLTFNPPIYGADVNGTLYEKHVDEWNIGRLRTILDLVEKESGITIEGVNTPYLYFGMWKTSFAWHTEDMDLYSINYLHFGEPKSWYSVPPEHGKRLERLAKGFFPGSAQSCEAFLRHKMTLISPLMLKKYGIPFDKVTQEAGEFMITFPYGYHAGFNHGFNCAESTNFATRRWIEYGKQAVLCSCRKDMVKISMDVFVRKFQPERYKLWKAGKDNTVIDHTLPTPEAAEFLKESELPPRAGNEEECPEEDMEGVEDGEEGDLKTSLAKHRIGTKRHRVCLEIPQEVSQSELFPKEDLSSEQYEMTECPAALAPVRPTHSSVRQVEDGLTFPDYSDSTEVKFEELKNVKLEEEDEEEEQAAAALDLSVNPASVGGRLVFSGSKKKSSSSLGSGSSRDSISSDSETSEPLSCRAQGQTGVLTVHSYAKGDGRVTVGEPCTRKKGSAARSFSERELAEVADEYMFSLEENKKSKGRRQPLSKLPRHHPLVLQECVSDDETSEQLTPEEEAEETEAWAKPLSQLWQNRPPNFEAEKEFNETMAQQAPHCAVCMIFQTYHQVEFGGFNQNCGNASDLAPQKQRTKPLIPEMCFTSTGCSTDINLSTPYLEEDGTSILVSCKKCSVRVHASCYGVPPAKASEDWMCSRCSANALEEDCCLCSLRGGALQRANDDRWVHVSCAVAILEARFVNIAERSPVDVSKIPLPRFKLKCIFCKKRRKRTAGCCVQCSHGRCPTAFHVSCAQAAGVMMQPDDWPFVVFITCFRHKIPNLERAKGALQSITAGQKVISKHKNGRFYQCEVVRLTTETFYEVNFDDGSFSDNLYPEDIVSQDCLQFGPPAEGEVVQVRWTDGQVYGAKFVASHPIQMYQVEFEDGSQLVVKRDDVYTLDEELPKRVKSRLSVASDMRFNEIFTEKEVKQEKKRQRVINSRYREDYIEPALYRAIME
# Experiment: qHTS Assay for Inhibitors of JMJD2A-Tudor Domain; further: nearly all actives have a fitted effect of over 50% in size
# Settings: AlphaScreen JMJD2A-Tudor / H3K4me3 peptide binding; activity change, negative = inhibition: at 114 µM (top of the series)
# On the % scale 0 is the no-effect control and ±100 the full control effect; potency means the concentration at half of the fitted maximal effect; tags describe the fitted curve by direction and shape.
Compound,"activity change, negative = inhibition",Potency
CSc1cc(-c2ccccc2)n(Cc2ccc(Cl)cc2Cl)c(=O)c1C#N,inactive: -26% [at 11.4 µM],
Cc1ccc(CNC(=O)CSc2c(C(C)C)cnc3c2c(=O)n(C)c(=O)n3C)cc1,inactive: -16.9%,
COc1ccc(S(=O)(=O)N2CCOCC2)cc1NC(=O)CSc1nnc(C2CC2)n1C,inactive: -2.93%,
O=[N+]([O-])c1cccc(S(=O)(=O)c2ccc(NCCO)c([N+](=O)[O-])c2)c1,,active: 14.1 µM
CC(C)(C)C(=O)Cn1ncc(N2CCOCC2)c(Cl)c1=O,,"inconclusive: 100 µM [inhibitor, single point]"
COc1ccc(CNCc2ccco2)cc1OCc1ccccc1,,active: 12.6 µM
CCC(=O)Nc1ccc(S(=O)(=O)NCc2cccn2Cc2cccc(C)c2)cc1,,"inconclusive: 56.2 µM [inhibitor, partial curve]"
CC1(C)CC(CC(=O)O)C(=O)O1 (centres undefined),,"inconclusive: 100 µM [inhibitor, partial curve]"
CCOc1ccc(-c2cc(C)n3nc(C(=O)Nc4cc(Cl)ccc4O)cc3n2)cc1,inactive: -17.5%,
COc1ccc(/C=N\NC(=O)C2C(=O)NCC2c2ccccc2)cc1O (centres undefined),,"inconclusive: 3.55 µM [inhibitor, single point]"
O=C(CN1C(=O)/C(=C/c2ccco2)SC1=S)Nc1ccc(O)c(C(=O)O)c1,,"inconclusive: 2.82 µM [inhibitor, single point]"
COc1cc(OC)cc(C(=O)NCC(C)NC(=O)c2cc(OC)cc(OC)c2)c1 (centres undefined),,"inconclusive: 89.1 µM [inhibitor, single point]"
Cc1cccc(NC(=O)C2CCN(c3ncnc4c3nc3n4CCCCC3)CC2)n1,,"inconclusive: 17.8 µM [inhibitor, full curve]"
Cc1ccc(NC(=S)/C(=C(\[O-])c2ccc(F)cc2)[n+]2ccccc2)cc1,,"inconclusive: 56.2 µM [inhibitor, partial curve]"
Cc1cc(/C=N/NC(=O)C(=O)NCc2ccccn2)c(C)n1-c1cccc(Br)c1,,"inconclusive: 79.4 µM [inhibitor, single point]"
Cc1ccc(Cl)c(OC(=O)Cn2cnc3c2c(=O)n(C)c(=O)n3C)c1,inactive: -5.5%,
COc1ccc(OC)c(CNC(=O)c2cc(=O)[nH]c3ccc(S(=O)(=O)N4CCCCC4C)cc23)c1 (centres undefined),,"inconclusive: 79.4 µM [inhibitor, partial curve]"
C[C@H](NC(=O)c1[nH]cnc1C(=O)Nc1ccc(CNC(=O)OC(C)(C)C)cc1)C(=O)OC(C)(C)C,,"inconclusive: 25.1 µM [inhibitor, full curve]"
O=C1C=CC(=O)N1N(c1ccccc1)c1ccccc1,,active: 17.8 µM
Cc1cccc(C(=O)OC(C)CN2CCCC2)c1 (centres undefined),inactive: 9.18%,
CC1=C(C(=O)O)N2C(=O)C(NC(=O)c3ccc(F)cc3)C2SC1 (centres undefined),,"inconclusive: 89.1 µM [inhibitor, single point]"
Cc1ccc(C)c(N2CCN(CCCNc3ncnc4onc(-c5ccc(Cl)cc5)c34)CC2)c1,,"inconclusive: 31.6 µM [inhibitor, full curve, poor fit]"

Compound,"activity change, negative = inhibition",Potency
CC(C)(CNC(=O)c1cc([N+](=O)[O-])ccc1N1CCC(Cc2ccccc2)CC1)N1CCOCC1,,"inconclusive: 20 µM [inhibitor, full curve]"
CCN(C(=O)C(NS(=O)(=O)c1cccc2nsnc12)c1ccccc1)c1ccccc1 (centres undefined),,"inconclusive: 8.91 µM [inhibitor, full curve, poor fit]"
O=[N+]([O-])c1cccc(Nc2c([N+](=O)[O-])ccc3nonc23)c1,,"inconclusive: 20 µM [inhibitor, partial curve]"
O=C(NCC1CCCO1)c1ccccc1S(=O)(=O)c1ccc([N+](=O)[O-])cc1 (centres undefined),inactive: 0.673%,
Cc1c(C(O)CN2CCN(Cc3ccc4c(c3)OCO4)CC2)c2ccccc2n1C (centres undefined),,active: 56.2 µM
Cc1ccc2c(c1)N(CC(=O)N(Cc1ccc3c(c1)OCO3)CC1CCCO1)C(=O)C(C)O2 (centres undefined),,"inconclusive: 63.1 µM [inhibitor, partial curve, poor fit]"
O=S(=O)(c1ccc2ccccc2c1)N1CCN(c2ccc(O)cc2)CC1,,active: 35.5 µM
CCCCC(=O)Nc1ccc(NC(=O)C2CC2)nc1,,"inconclusive: 70.8 µM [inhibitor, single point]"
COc1cc2c(cc1OC)CN(C(=O)c1nn(Cc3ccccc3)c(=O)c3ccccc13)CC2,,"inconclusive: 79.4 µM [inhibitor, partial curve]"
O=C(CCC(=O)OCC(=O)c1ccc(-c2ccccc2)cc1)Nc1cccc(Cl)c1,,"inconclusive: 89.1 µM [inhibitor, partial curve]"
S=c1cn[nH]c2ccccc12,,active: 4.47 µM
CS(=O)(=O)n1nc(OC(=O)c2cccs2)cc1N,,"inconclusive: 20 µM [inhibitor, full curve, poor fit]"
O=C(O)CC/C(=N/NC(=O)c1cn(-c2ccccc2)nc1-c1ccccc1)C(=O)O,,"inconclusive: 28.2 µM [inhibitor, full curve]"
CC1=CC(C)(C)n2c(O)c(C3=NC(=S)NC3=O)c3cc(OC(=O)c4cccc5ccccc45)cc1c32,,"inconclusive: 10 µM [inhibitor, full curve]"
COc1cccc([C@@H]2Oc3ccc(OC)cc3C(=O)[C@H]2OC(=O)Nc2cc(OC)c(OC)c(OC)c2)c1,,"inconclusive: 8.91 µM [inhibitor, full curve, poor fit]"
O=C(c1ccc(N2CCCC2)c([N+](=O)[O-])c1)N1CCN(S(=O)(=O)c2ccccc2)CC1,inconclusive: -46.2% [inhibitor],
CCN(CC)C(=N)/C(C#N)=N/Nc1ccccc1,,active: 79.4 µM
O=C(C1=C[C@@H](c2csc3ccccc23)C[C@@H](OCc2ccc(CO)cc2)O1)N1CCN(Cc2ccccc2)CC1,,"inconclusive: 10 µM [inhibitor, partial curve]"
Clc1ccc(C2=Nn3c(nnc3-c3n[nH]c4c3CCC4)SC2)cc1,,"inconclusive: 89.1 µM [inhibitor, single point]"
Oc1cccc(C(O)CNCc2ccc(OCc3ccc(Cl)cc3Cl)cc2)c1 (centres undefined),,"inconclusive: 25.1 µM [inhibitor, full curve, poor fit]"
COc1ccc(NC(=O)C2CCN(C3=NS(=O)(=O)C(c4ccc(C)c(C)c4)=C3C)CC2)cc1OC,inactive: -15.7%,
COC(=O)c1ccc(OCC2c3cc(OC)c(OC)cc3CCN2C(=O)c2cccc(C)c2)cc1 (centres undefined),,"inconclusive: 44.7 µM [inhibitor, partial curve]"

Compound,"activity change, negative = inhibition",Potency
COc1cc(NC(=S)N2CCN(C/C=C/c3ccccc3)CC2)cc(OC)c1,,"inconclusive: 70.8 µM [inhibitor, single point]"
CCOc1c(OC)ccc2c3c(c(=O)oc12)CCCC3,,"inconclusive: 89.1 µM [inhibitor, single point]"
COc1ccc(C(=O)CSc2nnc(CNC(=O)c3ccc(OC)c(OC)c3)n2C)cc1,,active: 44.7 µM
O=C(CN1CCN(S(=O)(=O)c2ccc(F)cc2)CC1)c1ccc(O)c(O)c1,,"inconclusive: 2.82 µM [inhibitor, partial curve, poor fit]"
Cc1cc(C(=O)COC(=O)c2ccc(O)cc2O)c(C)n1C(C)C,,"inconclusive: 56.2 µM [inhibitor, partial curve]"
COc1ccc2c(c1)NC(c1ccc(F)cc1)=NC(c1ccc(F)cc1)=N2,,"inconclusive: 35.5 µM [inhibitor, partial curve]"
O=C(Cc1c[nH]c2ccccc12)OCCOC(=O)Cc1c[nH]c2ccccc12,,"inconclusive: 89.1 µM [inhibitor, partial curve]"
NC(=O)c1ccc(-n2nnnc2Oc2ccccc2)cc1,,"inconclusive: 50.1 µM [inhibitor, partial curve]"
COc1cc(OC)cc(C(=O)NC(=S)N2CCN(c3ccc(C(F)(F)F)cc3[N+](=O)[O-])CC2)c1,,"inconclusive: 39.8 µM [inhibitor, partial curve]"
CCn1c(CNc2cccc(C(F)(F)F)c2)n[nH]c1=S,,active: 50.1 µM
CCn1c(CNc2nc(-c3ccccc3)cs2)nnc1SCC(=O)NCc1ccco1,,"inconclusive: 39.8 µM [inhibitor, partial curve]"
CCN(CC)c1ccc(NC(=O)CN2C(=O)c3cccnc3Oc3ccccc32)c(C)c1,,"inconclusive: 39.8 µM [inhibitor, partial curve]"
Cc1cccc(C(=O)Nc2scc(-c3ccc(Br)cc3)c2C(=O)O)c1,,"inconclusive: 89.1 µM [inhibitor, single point]"
COCCCNC(=O)C[C@H]1C[C@H](C(=O)N2CCCCC2)[C@@]2(CCc3ccccc3)c3[nH]c4cc(-c5ccco5)ccc4c3CCN2C1=O,,active: 44.7 µM
CCOC(=O)CSc1nnc(NC(=O)c2cccc([N+](=O)[O-])c2C)s1,inactive: -9.62%,
O=c1ccc2cc(O)c(O)cc2o1,,"inconclusive: 4.47 µM [inhibitor, full curve, poor fit]"
Cc1nc2scc(C)n2c(=O)c1S(=O)(=O)Nc1ccc(F)cc1,inactive: -12%,
O=C(Sc1nnc(-c2ccccc2)o1)N1c2ccccc2Sc2ccccc21,,active: 50.1 µM
COC(=O)[C@@]12CCCN1[C@H](c1ccc(-c3cccc(Cl)c3)c(OC)c1)[C@H]1C(=O)N(C)C(=O)[C@H]12,,"inconclusive: 56.2 µM [inhibitor, partial curve]"
CCN1CCN(c2ccc(S(=O)(=O)N3CCCCC3)cc2NC(=O)Cc2ccccc2)CC1,,"inconclusive: 39.8 µM [inhibitor, single point]"
